# Several values for one entry are separate records, joined by “and”; a condition that tells them apart may be missing. Identical values can stand only once. In all, about 420,000 compounds went through this assay and about 64,000 (15%) were called active. The shares of active, inactive and inconclusive entries below differ from those in the screen. Calls come from the whole dose curve; as a rule, active = well fitted inhibition curve with a large enough effect; inconclusive = small, poorly fitted or top-dose-only effect; inactive = flat fitted curve, though single readings scatter. Where the call is inconclusive, the potency comes from a doubtful curve fit.
# Experiment: qHTS for Inhibitors of human tyrosyl-DNA phosphodiesterase 1 (TDP1): qHTS in cells in absence of CPT; note: nearly all actives have a fitted effect of over 55% in size
# Settings: DT40 Tdp1-/- hTDP1 cells, no CPT, ATP luminescence, 48 h; activity change, negative = growth inhibition: at 46.2 µM (top of the series) unless noted
# Outline: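 Growth kinetics read by CellTiter-Glo luminescence after ≥48 hr at 37 °C. Cells: DT40 Tdp1-/- stably carrying human TDP1, 400 per well, compound exposure in the absence of CPT (DMSO vehicle).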
# % is set by controls: 0 for no effect and ±100 for the full control effect; potency is the fitted concentration of half-maximal effect; tags give direction and shape of the fitted curve.
SMILES,Potency,"activity change, negative = growth inhibition"
Cc1c(CC(=O)NCCc2ccccc2)c(=O)oc2c(C)c3occ(C(C)(C)C)c3cc12,active: 18.4 µM,–
Cc1cc(CN(C)Cc2ccc(OCC(O)CN(C)Cc3ccccc3)cc2)on1 (stereo not drawn),"inconclusive: 23.1 µM [inhibitor, single point]",–
Cc1cc(Nc2cc(Cl)ccc2C)n2nc(-c3ccccc3)nc2n1,"inconclusive: 20.6 µM [inhibitor, single point]",–
CNC[C@@H]1Oc2ccc(NS(=O)(=O)c3ccc(OC)cc3)cc2CC(=O)N([C@H](C)CO)C[C@@H]1C,–,inactive: 2.98%
Cc1ccc(/C=C/C(=O)N2CC(=O)Nc3ccccc32)o1,–,inactive: -15.9%
COc1ccc(C(=O)C2CCCN(C(=O)COc3ccc(C(C)=O)cc3)C2)cc1F (stereo not drawn),"inconclusive: 29.1 µM [inhibitor, single point]",–
COC(=O)c1c(C)[nH]c(C(=O)COC(=O)CCc2ccc(OC)c(OC)c2)c1C,"inconclusive: 29.1 µM [inhibitor, single point]",–
CSc1cnc2c(=O)n(C)c(=O)[nH]c2n1,"inconclusive: 16.4 µM [inhibitor, partial curve]",–
CCS(=O)(=O)c1ccc(-c2csc(-c3ccccc3Cl)n2)c(Cl)c1Cl,active: 23.1 µM,–
COc1ccc(OCCCn2c(C3CC(=O)N(c4ccc(F)cc4)C3)nc3ccccc32)cc1 (stereo not drawn),"inconclusive: 20.6 µM [inhibitor, partial curve, poor fit]",–
CC(OC(=O)CCN1C(=O)C2CC=CCC2C1=O)C(=O)Nc1cccc(Cl)c1 (stereo not drawn),–,inactive: -14.1%
Cc1ccc(CNC(=O)Cn2cnc(C(=O)Nc3ccc(C)c(C)c3)n2)o1,–,inactive: -26.6%
COCCNC(=O)CSc1nnc(-c2ccc(C)cc2)c(-c2ccc(C)cc2)n1,"inconclusive: 25.9 µM [inhibitor, single point]",–
Cc1nc2c(-c3ccc(F)cc3)c(C)nn2c(C)c1CCC(=O)NCc1ccc(F)cc1,–,inactive: -9.09%
COc1ccc(OC)c(-c2noc(N3CCN(c4cccc(C(F)(F)F)c4)CC3)n2)c1,"inconclusive: 20.6 µM [inhibitor, single point]",–
Cc1nc2cc(NC(=O)CS(=O)(=O)c3ccc(F)cc3)ccc2s1,"inconclusive: 14.6 µM [inhibitor, single point]",–
COc1cccc(CC2(CO)CCCN(Cc3ccc4c(c3)OCCO4)C2)c1 (stereo not drawn),"inconclusive: 29.1 µM [inhibitor, single point]",–
COc1ccc(NC(=O)c2nnn(-c3ccc(C(C)C)cc3)c2C)c(OC)c1,–,inconclusive: -11.9% [inhibitor]
COc1cc2nc(N3CCOCC3)nc(NC(C)C)c2cc1OC,"inconclusive: 22.4 µM [inhibitor, single point]",–
CCCn1c(SCC(=O)Nc2cccc(C(=O)OCC)c2)nnc1-c1ccoc1C,"inconclusive: 16.4 µM [inhibitor, partial curve]",–
COc1ccc(C(=O)c2oc3ccc(Br)cc3c2NC(C)=O)cc1,"inconclusive: 7.31 µM [inhibitor, partial curve, poor fit]",–
CSc1nc2ccccc2c(=O)n1Cc1ccc(F)cc1,"inconclusive: 23.1 µM [inhibitor, single point]",–
CCC(Sc1nc2ccsc2c(=O)n1-c1ccc(Cl)c(C)c1)C(=O)NCc1ccco1 (stereo not drawn),"inconclusive: 25.9 µM [inhibitor, single point]",–

SMILES,Potency,"activity change, negative = growth inhibition"
CCCn1c2ccccc2c2cnn(CC(=O)N3CCOCC3)c(=O)c21,"inconclusive: 0.0116 µM [inhibitor, full curve, poor fit]",–
COCCn1c(SCC(=O)Nc2ccc(F)cc2)nc2ccccc2c1=O,"inconclusive: 16.4 µM [inhibitor, partial curve, poor fit]",–
COc1cc(OC)c2ccc(=O)oc2c1C(CC(=O)N1CCCC(C)C1)c1ccc2c(c1)OCO2 (stereo not drawn),"inconclusive: 20.6 µM [inhibitor, single point]",–
C=CCN(c1ccccc1OC)S(=O)(=O)c1cccc(C(=O)NC2=NCCS2)c1,active: 23.1 µM,–
O=C(O)c1ccccc1C(c1ccccc1)c1ccccc1O (stereo not drawn),"inconclusive: 16.4 µM [inhibitor, partial curve, poor fit]",–
O=C(COc1ccccc1-c1ccccc1)NN=C1CCCC1,"inconclusive: 20.6 µM [inhibitor, single point]",–
CN(C)C(CNC(=O)c1ccc2ccccc2n1)c1ccccc1 (stereo not drawn),active: 18.4 µM,–
COc1ccc(C(=O)OCC(=O)Nc2c(C)cccc2C)c(OC)c1OC,"inconclusive: 29.1 µM [inhibitor, single point]",–
Cc1ccc(S(=O)(=O)NCCC(=O)NNC(=O)COc2ccccc2Cl)cc1C,"inconclusive: 25.9 µM [inhibitor, single point]",–
Oc1ccc(Br)cc1/C=N/N1CCN(Cc2cccc3ccccc23)CC1,"inconclusive: 23.1 µM [inhibitor, single point]",–
CCOC(=O)c1c(C)[nH]c(C)c1C(=O)COC(=O)/C=C/c1cccc(Cl)c1,"inconclusive: 16.4 µM [inhibitor, single point]",–
COc1c(C2=CC(=O)N(C)C2=O)c2c(n1C)C(=O)c1ccccc1C2=O,active: 0.58 µM,–
CCCCC(O)(c1ccc(CC)cc1)C(CN1CCOCC1)c1ccccc1 (stereo not drawn),"inconclusive: 18.4 µM [inhibitor, single point]",–
Cc1ccc(S(=O)(=O)NCCC(=O)OCC(=O)N(Cc2ccccc2)C(C)(C)C)cc1,"inconclusive: 29.1 µM [inhibitor, single point]",–
COc1ccc(-c2coc3cc(O)cc(O)c3c2=O)cc1,"inconclusive: 10.3 µM [inhibitor, partial curve] and inconclusive: 29.9 µM [inhibitor, partial curve]",–
O=C(COC(=O)c1ccccc1)Nc1cc(S(=O)(=O)N2CCCCCC2)ccc1Cl,–,inconclusive: -31.3% [inhibitor]
Cc1cc(C(=O)N/N=C/C(Cl)=C/c2ccccc2)c(C)o1,active: 20.6 µM,–
CCOc1cccc2sc(N3CCN(C(=O)c4ccco4)CC3)nc12,active: 16.4 µM,–
CC(=O)OCCN(C)c1cc(SC(C)C)c2nonc2c1[N+](=O)[O-],active: 16.4 µM,–
COc1ccccc1OCCOCCOc1c(C)cc(C)cc1Br,active: 23.1 µM,–
O=C(NCCCN1CCN(c2ccc(F)cc2)CC1)Nc1ccccc1Cl,"inconclusive: 18.4 µM [inhibitor, single point]",–
CCN(CC)C(=O)CSc1nc2c(sc(=S)n2Cc2ccco2)c(=O)n1-c1ccccc1,"inconclusive: 25.9 µM [inhibitor, single point]",–
CCN(CC)C(=O)c1ccc2c3c(cccc13)C(=O)N(CCc1ccc(OC)c(OC)c1)C2=O,active: 8.2 µM,–

SMILES,Potency,"activity change, negative = growth inhibition"
CCC(Sc1nc(C)cc(C)n1)C(=O)Nc1ccc(Cl)cn1 (stereo not drawn),"inconclusive: 14.6 µM [inhibitor, partial curve]",–
Cc1cc(C)c(OCC(=O)NCC(c2ccco2)N2CCCCC2)c(C)c1 (stereo not drawn),"inconclusive: 18.4 µM [inhibitor, single point]",–
Cc1ccccc1CN(c1ccc(C(=O)N2CCN(C)CC2)cc1)S(C)(=O)=O,–,inactive: -13.1%
COc1ccc(Cc2noc(CN3CCCC(C(=O)c4cccs4)C3)n2)cc1OC (stereo not drawn),"inconclusive: 25.9 µM [inhibitor, single point]",–
COc1ccc(-c2nc3cnccn3c2NC2CCCCC2)cc1-c1cccc(Cl)c1,active: 25.9 µM,–
O=C(NC1CC1)c1[nH]c(C(F)(F)F)nc1-c1ccccc1,–,inactive: -0.97%
C=CCCC(=O)N1CCCC(C(=O)c2cccc(OC)c2)C1 (stereo not drawn),"inconclusive: 32.6 µM [inhibitor, single point]",–
Cc1ccc(C(C)C)c(OCCCn2ccnc2C)c1,active: 29.1 µM,–
COc1cc(C)c(S(=O)(=O)N2CCOCC2)cc1C(C)C,"inconclusive: 23.1 µM [inhibitor, single point]",–
CCCNC(=O)c1ccc(Cn2c(SCC(N)=O)nc3ccccc3c2=O)cc1,–,inconclusive: -30.4% [inhibitor]
NC(Cc1ccc(C(F)(F)F)cc1)c1csc(Nc2nccc(C(F)(F)F)n2)n1 (stereo not drawn),"inconclusive: 29.1 µM [inhibitor, single point]",–
CN(CC(=O)Nc1c(Cl)cccc1Cl)C(=O)Cc1ccc2c(c1)CCC2,"inconclusive: 18.4 µM [inhibitor, partial curve]",–
COc1ccc(OC)c(NC(=O)c2cc3cccc(OC)c3oc2=O)c1,–,inactive: -13.4%
Cc1cccc(C)c1NC(=O)/C(C#N)=C/c1ccsc1,"inconclusive: 23.1 µM [inhibitor, single point]",–
CC1CC(C)CN(C(=O)COc2cccnc2[N+](=O)[O-])C1 (stereo not drawn),"inconclusive: 29.1 µM [inhibitor, partial curve, poor fit]",–
Cc1cc(NC(=O)CCC(=O)N(Cc2ccco2)C(C(=O)NC2CCCC2)c2ccc(F)cc2)no1 (stereo not drawn),–,inactive: -17%
O=C(Nc1ccccc1)C1=C[C@@H](C2CC2)C[C@@H](OCc2ccc(CO)cc2)O1,–,inactive: -24.8%
Cc1cc(OCC(=O)N2CCN(c3ncccn3)CC2)ccc1Cl,–,inconclusive: -32.7% [inhibitor]
COc1ccc(/C=N/NC(=O)c2nn(-c3ccc(Cl)cc3)c(=O)c3c(N)scc23)cc1,active: 2.59 µM,–
CCCCCCCC(=O)NNC(=O)c1c(O)c2ccccc2n(CC)c1=O,"inconclusive: 29.1 µM [inhibitor, single point]",–
Clc1ccc(-c2c[n+](Cc3ccc(Br)cc3)c3n2CCCCC3)cc1,active: 2.59 µM,–
O=C(c1cccc(Cl)c1)c1nn(-c2ccccc2)c(=O)cc1C(F)(F)F,"inconclusive: 25.9 µM [inhibitor, partial curve, poor fit]",–
